Laboratory results reported in the supplement of paper PMC3334620.
Over roughly 33,000 sequences, “E-score (-0.5 to 0.5)” has its median near -0.043; the highest 2% begin near 0.37. Some of the results follow.

biological target: T1, Upc2 (UniProt Q12151); assay: PBM E-score (8-mer binding enrichment) (E-score (-0.5 to 0.5)); higher = stronger / more preferred TF binding; most listed sequences are background and not binding sites; details: protein concentration: 200 nM; construct: GST-full length
T1 sequence: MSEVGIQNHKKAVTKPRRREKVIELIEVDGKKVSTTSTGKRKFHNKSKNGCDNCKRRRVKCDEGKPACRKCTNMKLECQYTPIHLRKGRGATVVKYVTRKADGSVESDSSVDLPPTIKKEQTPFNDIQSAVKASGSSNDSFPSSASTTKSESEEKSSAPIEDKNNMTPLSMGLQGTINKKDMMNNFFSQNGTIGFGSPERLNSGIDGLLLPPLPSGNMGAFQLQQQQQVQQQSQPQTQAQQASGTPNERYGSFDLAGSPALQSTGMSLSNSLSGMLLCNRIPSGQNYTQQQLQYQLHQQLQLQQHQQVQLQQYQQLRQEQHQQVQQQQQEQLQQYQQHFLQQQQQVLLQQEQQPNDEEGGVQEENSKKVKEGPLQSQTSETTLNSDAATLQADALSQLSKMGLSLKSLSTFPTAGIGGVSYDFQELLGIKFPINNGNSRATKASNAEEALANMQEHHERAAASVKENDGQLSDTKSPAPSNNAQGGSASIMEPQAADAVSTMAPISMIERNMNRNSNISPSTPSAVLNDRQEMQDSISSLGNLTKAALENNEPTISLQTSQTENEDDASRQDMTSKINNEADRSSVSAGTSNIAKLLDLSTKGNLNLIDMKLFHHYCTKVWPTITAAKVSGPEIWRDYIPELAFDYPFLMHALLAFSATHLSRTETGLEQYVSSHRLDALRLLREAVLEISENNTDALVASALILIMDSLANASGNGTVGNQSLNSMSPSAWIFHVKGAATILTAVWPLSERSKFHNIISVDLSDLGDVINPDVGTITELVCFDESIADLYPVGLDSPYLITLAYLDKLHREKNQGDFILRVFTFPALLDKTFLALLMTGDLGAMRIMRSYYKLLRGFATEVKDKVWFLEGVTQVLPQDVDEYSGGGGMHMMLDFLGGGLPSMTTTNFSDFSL
Summary of the method: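 Using PURExpress in vitro transcription/translation, GST-tagged yeast transcription factors were made in full-length or DNA-binding-domain form. These were applied at about 100-200 nM to double-stranded universal all-10-mer Agilent arrays, and bound protein was detected with fluorescent anti-GST. Scans were normalised with masliner before the Universal PBM Analysis Suite assigned E-scores to ungapped eight-base words pooled with their reverse complements.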

Row | Sequence | PBM E-score
1 | CCCTCGAC | -0.12
2 | GTACGTAC | 0.324
3 | GTCATTCA | -0.166
4 | GCAAAACA | -0.144
5 | AGAGATAC | 0.157
6 | AGGGTGTC | -0.186
7 | CAGGAGAG | -0.133
8 | AGAGCAAA | -0.148
9 | CCAAGAGG | -0.316
10 | AAGATATA | 0.127
11 | CTGCAACA | 0.0316
12 | CCTGTGTA | -0.0847
13 | ATCTATCA | 0.0727
14 | ACTTCTGC | -0.04
15 | CATGACGC | -0.0058
16 | ATTATGGG | -0.315
17 | CAAGACCA | -0.319
18 | ATAGAATA | -0.132
19 | AAGGAGGC | -0.317
20 | GTCTGCTA | -0.148
21 | CCCCCTCG | 0.141
22 | AGTACGCA | -0.0414

Row | Sequence | PBM E-score
23 | AAGAGACG | 0.102
24 | ATGTACCG | -0.03
25 | AAGGAGTG | -0.0551
26 | ACCAATAT | 0.0909
27 | CAGACTAA | -0.124
28 | CGGCTCTA | -0.0521
29 | CTCAGAAA | -0.00708
30 | CTTACCCC | -0.232
31 | ACTTGTTG | -0.135
32 | ACACACGC | 0.0327
33 | AACCGTGA | -0.0176
34 | ACCTCGCA | 0.153
35 | AACAGCAA | -0.175
36 | CGCCAAGC | -0.128
37 | CACGGTGA | -0.0342
38 | CTCGGCGC | 0.069
39 | GAGACCTC | -0.0563
40 | CGCCATAG | -0.0763
41 | ATAGCACC | -0.0788
42 | AGGTCTTA | 0.104
43 | ATGTAAAG | -0.0452
44 | CAGCATAG | -0.167

Row | Sequence | PBM E-score
45 | CAGAGTCG | -0.0742
46 | ACGCAATG | 0.00346
47 | CGGCCATA | 0.0434
48 | AGTCGCTA | 0.0916
49 | CATAGCCA | -0.226
50 | CTAGGCCC | -0.335
51 | AGCGGGTG | -0.152
52 | GATTACAC | -0.0488
53 | GCAAGGGA | -0.0719
54 | ACCTTCAC | -0.145
55 | ATATTATC | -0.0501
56 | CGATAATC | -0.0391
57 | ACGTCACC | -0.049
58 | GTGGGACA | -0.146
59 | CAAGTCCC | -0.298
60 | GACCGTAC | 0.36
61 | CACTGAAA | 0.0683
62 | ATGTCCAC | -0.208
63 | ATCCTATA | 0.0557
64 | AGGTATTC | 0.109
65 | ACGCGGGC | 0.00815
66 | AATACGCA | 0.159

Row | Sequence | PBM E-score
67 | ACACCAGG | -0.251
68 | AAATCAAC | -0.0395
69 | CTCGCTCC | 0.313
70 | CCACGGAC | -0.276
71 | CGAGCCAA | 0.0857
72 | AGCGAGCA | 0.245
73 | GTCGCCTA | -0.0155
74 | AAGAAACG | 0.308
75 | TCAGTCGA | -0.00236
76 | CCTGAGAA | -0.0858
77 | CAGAGCGG | -0.24
78 | CCTGCCTA | -0.207
79 | AGTTGTTG | -0.293
80 | ATATACTA | 0.161
81 | CCCGTGTA | 0.0474
82 | GAAGGCGA | -0.18
83 | ATCATACC | -0.02
84 | GGCTACCC | -0.22
85 | GGATCCGA | 0.0685
86 | GACATGTC | -0.095
